First the molecules themselves.
B1: TEV protease; numbered along this chain (parent)
chain: MGESLFKGPRDYNPISSSICHLTNESDGHTTSLYGIGFGPFIITNKHLFRRNNGTLVVQSLHGVFKVKDTTTLQQHLVDGRDMIIIRMPKDFPPFPQKLKFREPQREERICLVTTNFQTKSMSSMVSDTSCTFPSGDGIFWKHWIQTKDGQCGSPLVSTRDGFIVGIHSASNFTNTNNYFTSVPKNFMELLTNQEAQQWVSGWRLNADSVLWGGHKVFMVKPEEPFQPVKEATQL

The test covers variants of B1. Description: raw area under fraction-flipped curve 0-4 h after induction (AUC4h, not background-subtracted), DNA-recorder readout of cleavage of the substrate (dimensionless); higher = more cleavage of the substrate by the protease variant. To be noted: temperature: 34 °C; time window: 0-4 h after rhamnose induction. Here is the method: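 In vivo DNA recorder in E. coli TOP10(DE3) ΔrhaA at 34 °C. Each TEVp single-site mutant (parent TEVp 0) is paired with a single-site variant of the 7-mer TEVs (canonical ENLYFQ|S). The substrate sits between flexible linkers in a Bxb1-sfGFP-TEVs-SsrA fusion, so cleavage stabilises Bxb1 and speeds flipping of a recombination array, read by NGS. The value is the raw area under the fraction-flipped curve over 0-4 h after rhamnose induction (AUC4h), with ≥20 reads per time point. It is not background-subtracted; inactive controls average about 0.047.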

Some of the results follow. The full chains were built here from the parent and the listed change. Values near 0.05 are background.
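Note: Bxb1 expression induced with 0.2% (w/v) L-rhamnose at OD600 near 0.5, cultures sampled hourly, flipped fraction per protease–substrate barcode pair counted by paired-end Illumina sequencing.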

As to MGESIFKGPRDYNPISSSICHLTNESDGHTTSLYGIGFGPFIITNKHLFRRNNGTLVVQSLHGVFKVKDTTTLQQHLVDGRDMIIIRMPKDFPPFPQKLKFREPQREERICLVTTNFQTKSMSSMVSDTSCTFPSGDGIFWKHWIQTKDGQCGSPLVSTRDGFIVGIHSASNFTNTNNYFTSVPKNFMELLTNQEAQQWVSGWRLNADSVLWGGHKVFMVKPEEPFQPVKEATQL [L5I], the “area with substrate ENAYFQS” value is 0.0666, the “area with substrate ENHYFQS” value came out at 0.0443, the “area with substrate ENIYFQS” value was 0.115 and the “area with substrate ENPYFQS” value came out at 0.0512. The “area with substrate ENQYFQS” value came to 0.0431, the “area with substrate ENRYFQS” value was 0.0541, the “area with substrate ENTYFQS” value was 0.0439 and the “area with substrate ENVYFQS” value was 0.0943.
In the case of MGESLFKGPADYNPISSSICHLTNESDGHTTSLYGIGFGPFIITNKHLFRRNNGTLVVQSLHGVFKVKDTTTLQQHLVDGRDMIIIRMPKDFPPFPQKLKFREPQREERICLVTTNFQTKSMSSMVSDTSCTFPSGDGIFWKHWIQTKDGQCGSPLVSTRDGFIVGIHSASNFTNTNNYFTSVPKNFMELLTNQEAQQWVSGWRLNADSVLWGGHKVFMVKPEEPFQPVKEATQL [R10A], the “area with substrate ENAYFQS” value came to 0.0494, the “area with substrate ENCYFQS” value stood at 0.0788, the “area with substrate ENFYFQS” value was determined as 0.0761 and the “area with substrate ENIYFQS” value was 0.124. For the same variant, the “area with substrate ENNYFQS” value is 0.0561, the “area with substrate ENPYFQS” value worked out at 0.0595, the “area with substrate ENQYFQS” value stood at 0.0632 and the “area with substrate ENRYFQS” value was determined as 0.0564. The “area with substrate ENSYFQS” value was 0.0522, the “area with substrate ENTYFQS” value was 0.0583 and the “area with substrate ENVYFQS” value turned out to be 0.0709.
For MVESLFKGPRDYNPISSSICHLTNESDGHTTSLYGIGFGPFIITNKHLFRRNNGTLVVQSLHGVFKVKDTTTLQQHLVDGRDMIIIRMPKDFPPFPQKLKFREPQREERICLVTTNFQTKSMSSMVSDTSCTFPSGDGIFWKHWIQTKDGQCGSPLVSTRDGFIVGIHSASNFTNTNNYFTSVPKNFMELLTNQEAQQWVSGWRLNADSVLWGGHKVFMVKPEEPFQPVKEATQL [G2V], the “area with substrate ENAYFQS” value is 0.0617, the “area with substrate ENCYFQS” value worked out at 0.0658, the “area with substrate ENEYFQS” value was 0.0621 and the “area with substrate ENFYFQS” value worked out at 0.0503. The “area with substrate ENGYFQS” value stood at 0.057, the “area with substrate ENHYFQS” value amounted to 0.0641, the “area with substrate ENIYFQS” value was determined as 0.146 and the “area with substrate ENQYFQS” value is 0.0576. The “area with substrate ENRYFQS” value was 0.053, the “area with substrate ENSYFQS” value was 0.0547, the “area with substrate ENVYFQS” value turned out to be 0.0959 and the “area with substrate ENWYFQS” value was found to be 0.0461. For the same variant, the “area with substrate ENYYFQS” value was determined as 0.0551.
For the variant MPESLFKGPRDYNPISSSICHLTNESDGHTTSLYGIGFGPFIITNKHLFRRNNGTLVVQSLHGVFKVKDTTTLQQHLVDGRDMIIIRMPKDFPPFPQKLKFREPQREERICLVTTNFQTKSMSSMVSDTSCTFPSGDGIFWKHWIQTKDGQCGSPLVSTRDGFIVGIHSASNFTNTNNYFTSVPKNFMELLTNQEAQQWVSGWRLNADSVLWGGHKVFMVKPEEPFQPVKEATQL [G2P], the “area with substrate ENAYFQS” value came to 0.0644, the “area with substrate ENCYFQS” value was found to be 0.0741, the “area with substrate ENDYFQS” value came to 0.056 and the “area with substrate ENEYFQS” value came to 0.0591. The “area with substrate ENFYFQS” value was determined as 0.052, the “area with substrate ENGYFQS” value was determined as 0.0741, the “area with substrate ENHYFQS” value was 0.0597 and the “area with substrate ENKYFQS” value was 0.0623. The “area with substrate ENMYFQS” value was determined as 0.0918, the “area with substrate ENNYFQS” value is 0.0784, the “area with substrate ENPYFQS” value worked out at 0.0508 and the “area with substrate ENQYFQS” value turned out to be 0.0583. Also, the “area with substrate ENRYFQS” value turned out to be 0.0357, the “area with substrate ENSYFQS” value turned out to be 0.0569, the “area with substrate ENWYFQS” value was 0.0571 and the “area with substrate ENYYFQS” value was determined as 0.0528.
Regarding MGESLFKGPRDYNFISSSICHLTNESDGHTTSLYGIGFGPFIITNKHLFRRNNGTLVVQSLHGVFKVKDTTTLQQHLVDGRDMIIIRMPKDFPPFPQKLKFREPQREERICLVTTNFQTKSMSSMVSDTSCTFPSGDGIFWKHWIQTKDGQCGSPLVSTRDGFIVGIHSASNFTNTNNYFTSVPKNFMELLTNQEAQQWVSGWRLNADSVLWGGHKVFMVKPEEPFQPVKEATQL [P14F], the “area with substrate ENAYFQS” value was determined as 0.0555, the “area with substrate ENCYFQS” value was 0.0554, the “area with substrate ENDYFQS” value amounted to 0.06 and the “area with substrate ENEYFQS” value worked out at 0.0571. Moreover, the “area with substrate ENGYFQS” value came to 0.0712, the “area with substrate ENHYFQS” value stood at 0.0608, the “area with substrate ENNYFQS” value came to 0.0551 and the “area with substrate ENPYFQS” value is 0.0598. Further, the “area with substrate ENQYFQS” value is 0.0599, the “area with substrate ENRYFQS” value was 0.0553, the “area with substrate ENSYFQS” value was 0.0635 and the “area with substrate ENTYFQS” value was found to be 0.0668. The “area with substrate ENVYFQS” value came out at 0.0651 and the “area with substrate ENWYFQS” value is 0.0035.
In the case of MGESLFKGPRDYNPISSSICHLTNESFGHTTSLYGIGFGPFIITNKHLFRRNNGTLVVQSLHGVFKVKDTTTLQQHLVDGRDMIIIRMPKDFPPFPQKLKFREPQREERICLVTTNFQTKSMSSMVSDTSCTFPSGDGIFWKHWIQTKDGQCGSPLVSTRDGFIVGIHSASNFTNTNNYFTSVPKNFMELLTNQEAQQWVSGWRLNADSVLWGGHKVFMVKPEEPFQPVKEATQL [D27F], the “area with substrate ENAYFQS” value stood at 0.0663, the “area with substrate ENCYFQS” value worked out at 0.0841, the “area with substrate ENDYFQS” value is 0.0503 and the “area with substrate ENEYFQS” value was 0.0632. Also, the “area with substrate ENFYFQS” value came out at 0.0687, the “area with substrate ENGYFQS” value turned out to be 0.052, the “area with substrate ENKYFQS” value turned out to be 0.0751 and the “area with substrate ENSYFQS” value came out at 0.0713. The “area with substrate ENTYFQS” value came out at 0.0429 and the “area with substrate ENVYFQS” value was 0.046.
For the variant MGESLFKGPRDYNPISSSICHLTNESIGHTTSLYGIGFGPFIITNKHLFRRNNGTLVVQSLHGVFKVKDTTTLQQHLVDGRDMIIIRMPKDFPPFPQKLKFREPQREERICLVTTNFQTKSMSSMVSDTSCTFPSGDGIFWKHWIQTKDGQCGSPLVSTRDGFIVGIHSASNFTNTNNYFTSVPKNFMELLTNQEAQQWVSGWRLNADSVLWGGHKVFMVKPEEPFQPVKEATQL [D27I], the “area with substrate ENAYFQS” value was found to be 0.0572, the “area with substrate ENCYFQS” value was found to be 0.0569, the “area with substrate ENDYFQS” value was determined as 0.0657 and the “area with substrate ENHYFQS” value was found to be 0.0625. Further, the “area with substrate ENIYFQS” value was determined as 0.111, the “area with substrate ENNYFQS” value was 0.0735, the “area with substrate ENPYFQS” value turned out to be 0.0469 and the “area with substrate ENQYFQS” value is 0.0606. Further, the “area with substrate ENSYFQS” value worked out at 0.0596, the “area with substrate ENTYFQS” value came to 0.0636, the “area with substrate ENVYFQS” value was 0.0655 and the “area with substrate ENYYFQS” value amounted to 0.0446.
Take MGESLFMGPRDYNPISSSICHLTNESDGHTTSLYGIGFGPFIITNKHLFRRNNGTLVVQSLHGVFKVKDTTTLQQHLVDGRDMIIIRMPKDFPPFPQKLKFREPQREERICLVTTNFQTKSMSSMVSDTSCTFPSGDGIFWKHWIQTKDGQCGSPLVSTRDGFIVGIHSASNFTNTNNYFTSVPKNFMELLTNQEAQQWVSGWRLNADSVLWGGHKVFMVKPEEPFQPVKEATQL [K7M]: the “area with substrate ENAYFQS” value stood at 0.0474, the “area with substrate ENDYFQS” value came to 0.0626, the “area with substrate ENEYFQS” value worked out at 0.0595 and the “area with substrate ENGYFQS” value stood at 0.0619. The “area with substrate ENHYFQS” value was determined as 0.0682, the “area with substrate ENKYFQS” value worked out at 0.0555, the “area with substrate ENMYFQS” value came to 0.0719 and the “area with substrate ENNYFQS” value was 0.0662. In addition, the “area with substrate ENQYFQS” value was determined as 0.0789, the “area with substrate ENSYFQS” value amounted to 0.0647 and the “area with substrate ENTYFQS” value came to 0.0537.
On to MGESLFCGPRDYNPISSSICHLTNESDGHTTSLYGIGFGPFIITNKHLFRRNNGTLVVQSLHGVFKVKDTTTLQQHLVDGRDMIIIRMPKDFPPFPQKLKFREPQREERICLVTTNFQTKSMSSMVSDTSCTFPSGDGIFWKHWIQTKDGQCGSPLVSTRDGFIVGIHSASNFTNTNNYFTSVPKNFMELLTNQEAQQWVSGWRLNADSVLWGGHKVFMVKPEEPFQPVKEATQL [K7C], for which the “area with substrate ENAYFQS” value stood at 0.0802, the “area with substrate ENCYFQS” value worked out at 0.0623, the “area with substrate ENDYFQS” value stood at 0.06 and the “area with substrate ENEYFQS” value was 0.07. Besides, the “area with substrate ENFYFQS” value came out at 0.047, the “area with substrate ENGYFQS” value is 0.0538, the “area with substrate ENIYFQS” value was 0.0603 and the “area with substrate ENKYFQS” value was 0.0387. The “area with substrate ENPYFQS” value is 0.079, the “area with substrate ENQYFQS” value was found to be 0.0985, the “area with substrate ENVYFQS” value came out at 0.0893 and the “area with substrate ENWYFQS” value came to 0.0496.
Regarding MGESLFTGPRDYNPISSSICHLTNESDGHTTSLYGIGFGPFIITNKHLFRRNNGTLVVQSLHGVFKVKDTTTLQQHLVDGRDMIIIRMPKDFPPFPQKLKFREPQREERICLVTTNFQTKSMSSMVSDTSCTFPSGDGIFWKHWIQTKDGQCGSPLVSTRDGFIVGIHSASNFTNTNNYFTSVPKNFMELLTNQEAQQWVSGWRLNADSVLWGGHKVFMVKPEEPFQPVKEATQL [K7T], the “area with substrate ENAYFQS” value was 0.0556, the “area with substrate ENDYFQS” value stood at 0.0574, the “area with substrate ENEYFQS” value was 0.0795 and the “area with substrate ENIYFQS” value is 0.084. In addition, the “area with substrate ENNYFQS” value worked out at 0.0523, the “area with substrate ENQYFQS” value worked out at 0.06 and the “area with substrate ENYYFQS” value stood at 0.0588.

Source of the values: the supplement of paper PMC12217912.
